How the values were obtained:
[1] = biological target: T1, Motavizumab fragment of antigen binding (Fab); assay: SPR (Biacore), motavizumab Fab immobilised, immunogen injected
T1 construct: also called motavizumab Fab

[2] = biological target: T1, Motavizumab fragment of antigen binding …; assay: as above; remark: listed apart in the source
[3] = biological target: motavizumab (as used in ITC); assay: ITC
[4] = biological target: T1, Motavizumab fragment of antigen binding …; assay: SPR (Biacore), motavizumab Fab immobilised, immunogen injected; Biacore, not ITC

| Binder | Kd [1] [nM] | Kd [2] [nM] | -TdS [3] | Kd [3] [nM] | dH [3] | Kd [4] [nM] | binding result [1] |
| --- | --- | --- | --- | --- | --- | --- | --- |
| 1lp1b_001 (designed binder, also called 11p1b_001) VDNSFNDEKKLASNEIAHLPNLNEEQRSAFLSSINDDPSQSANLLAEAKKLNDAQAPKLEVLFQGPGAKFVAAWTLKAAAGDEVDGSHHHHHHSAWSHPQFEK | 181 | 181 |  |  |  |  |  |
| 1lp1b_002 (designed binder, also called 11p1b_002) VDNSFNDEKKLASNEIQHLPNLNEEQRSAFISSLNDDPSQSANLLAEAKKLNDAQAPKLEVLFQGPGAKFVAAWTLKAAAGDEVDGSHHHHHHSAWSHPQFEK | 700 | 700 |  |  |  |  |  |
| 1lp1b-003_Glyc1 (designed binder, also called 1l1pb_003_Glyc1) SFNDEKKLASNEIAHLPNLNETQRSAFLSSINDDPSQSANLLANATKLNDAQAPLEVLFQGPGAKFVAAWTLKAAAGDEVDGSHHHHHHSAWSHPQFEK | 400 |  |  |  |  |  |  |
| 1lp1b_003 (designed binder, also called 11p1b_003) SFNDEKKLASNEIAHLPNLNEEQRSAFLSSINDDPSQSANLLAEAKKLNDAQAPKLEVLFQGPGAKFVAAWTLKAAAGDEVDGSHHHHHHSAWSHPQFEK | 66 | 66 | -10.5 | 126 | 1.1 |  |  |
| 1lp1b_003_K46A (designed binder) SFNDEKKLASNEIAHLPNLNEEQRSAFLSSINDDPSQSANLLAEAAKLNDAQAPKLEVLFQGPGAKFVAAWTLKAAAGDEVDGSHHHHHHSAWSHPQFEK |  |  | -5.1 | 21 | -5.3 | 148 |  |
| 1lp1b_004 (designed binder, also called 11p1b_004) SFNDEKKLASNEIQHLPNLNEEQRSAFISSLNDDPSQSANLLAEAKKLNDAQAPKLEVLFQGPGAKFVAAWTLKAAAGDEVDGSHHHHHHSAWSHPQFEK | 296 | 296 |  |  |  |  |  |
| 1lp1b_003_L41I_L42V (designed binder) SFNDEKKLASNEIAHLPNLNEEQRSAFLSSINDDPSQSANIVAEAKKLNDAQAPKLEVLFQGPGAKFVAAWTLKAAAGDEVDGSHHHHHHSAWSHPQFEK | 77 |  | -7.9 | 90 | -1.7 |  |  |
| 1lp1b_003_F27A (designed binder) SFNDEKKLASNEIAHLPNLNEEQRSAALSSINDDPSQSANLLAEAKKLNDAQAPKLEVLFQGPGAKFVAAWTLKAAAGDEVDGSHHHHHHSAWSHPQFEK | 490 |  | 2.7 | 83 | -12.4 |  |  |
| 1lp1b_003_I13A_L42A (designed binder) SFNDEKKLASNEAAHLPNLNEEQRSAFLSSINDDPSQSANLAAEAKKLNDAQAPKLEVLFQGPGAKFVAAWTLKAAAGDEVDGSHHHHHHSAWSHPQFEK |  |  | 18.8 | 10700 | -25.6 |  |  |
| 1lp1b-003_L41I_L42A (designed binder) SFNDEKKLASNEIAHLPNLNEEQRSAFLSSINDDPSQSANIAAEAKKLNDAQAPKLEVLFQGPGAKFVAAWTLKAAAGDEVDGSHHHHHHSAWSHPQFEK | 247 |  | -9 | 24 | -1.3 |  |  |
| 1lp1b_003_Glyc2 (designed binder) SFNDEKKLASNEIAHLPNLNETQRSAFLSSINDDPNQSANLLANATKLNDAQAPKLEVLFQGPGAKFVAAWTLKAAAGDEVDGSHHHHHHSAWSHPQFEK | 812 |  |  |  |  |  |  |
| 1lp1b_003_L41A (designed binder) SFNDEKKLASNEIAHLPNLNEEQRSAFLSSINDDPSQSANALAEAKKLNDAQAPKLEVLFQGPGAKFVAAWTLKAAAGDEVDGSHHHHHHSAWSHPQFEK | 310 |  | -5.7 | 79 | -4 |  |  |
| 1lp1b_003_I13L_F27A (designed binder) SFNDEKKLASNELAHLPNLNEEQRSAALSSINDDPSQSANLLAEAKKLNDAQAPKLEVLFQGPGAKFVAAWTLKAAAGDEVDGSHHHHHHSAWSHPQFEK | 541 |  | 10.1 | 159 | -19.4 |  |  |
| 1lp1b-003_Surf1 (designed binder, also called 1l1pb_003_Surf1) SFNDEKKLASNRIANLPNLNEEQRSAFLSKINDDPSQSANLLEEALKLNDAQAQKLEVLFQGPGAKFVAAWTLKAAAGDEVDGSHHHHHHSAWSHPQFEK | 120 |  |  |  |  |  |  |
| 1lp1b_003_I13A (designed binder) SFNDEKKLASNEAAHLPNLNEEQRSAFLSSINDDPSQSANLLAEAKKLNDAQAPKLEVLFQGPGAKFVAAWTLKAAAGDEVDGSHHHHHHSAWSHPQFEK | 2300 |  | 7.4 | 380 | -16.2 |  |  |
| 1lp1b_003_L42A (designed binder) SFNDEKKLASNEIAHLPNLNEEQRSAFLSSINDDPSQSANLAAEAKKLNDAQAPKLEVLFQGPGAKFVAAWTLKAAAGDEVDGSHHHHHHSAWSHPQFEK | 218 |  | -5.1 | 93 | -4.4 |  |  |
| 1lp1b-003_Surf8 (designed binder, also called 1l1pb_003_Surf8) SFNDEKKLASNRIANLPNLNQEQRSAFLSKINDDPSQSANLLEEALKLNDNQAQKLEVLFQGPGAKFVAAWTLKAAAGDEVDGSHHHHHHSAWSHPQFEK | 117 |  |  |  |  |  |  |
| 1lp1b_003_L19A (designed binder) SFNDEKKLASNEIAHLPNANEEQRSAFLSSINDDPSQSANLLAEAKKLNDAQAPKLEVLFQGPGAKFVAAWTLKAAAGDEVDGSHHHHHHSAWSHPQFEK |  |  | 20.9 | 21000 | -27.3 |  |  |
| 1lp1b_003_K272E (designed binder, also called 1lp1b(K272E)) SFNDEKELASNEIAHLPNLNEEQRSAFLSSINDDPSQSANLLAEAKKLNDAQAPKLEVLFQGPGAKFVAAWTLKAAAGDEVDGSHHHHHHSAWSHPQFEK |  |  |  |  |  |  | no binding |
| 1lp1b_003_L16A (designed binder) SFNDEKKLASNEIAHAPNLNEEQRSAFLSSINDDPSQSANLLAEAKKLNDAQAPKLEVLFQGPGAKFVAAWTLKAAAGDEVDGSHHHHHHSAWSHPQFEK | 2300 |  | 3.4 | 341 | -12.3 |  |  |
| 1lp1b_003_Q52A (designed binder) SFNDEKKLASNEIAHLPNLNEEQRSAFLSSINDDPSQSANLLAEAKKLNDAAAPKLEVLFQGPGAKFVAAWTLKAAAGDEVDGSHHHHHHSAWSHPQFEK | 233 |  | -8.8 | 16 | -1.8 |  |  |
